This is one part of the list.
Test system: T1, Caupolican (Caup) homeodomain DNA-binding domain
T1 sequence: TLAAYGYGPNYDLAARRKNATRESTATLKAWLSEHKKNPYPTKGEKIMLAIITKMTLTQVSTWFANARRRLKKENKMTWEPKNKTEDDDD
Test: PBM E-score (8-mer, recovered from the published 9-mer minima) (E-score (dimensionless, -0.5 to 0.5)); Drosophila protein; higher = stronger relative binding preference, active = 0.31 or more
Outline: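 Caup's homeodomain DNA-binding domain (residues 214-303) was made by in vitro transcription and translation and applied at 100 nM to custom-designed protein binding microarrays. Each value is an enrichment score that gives relative binding preference for a short DNA word, with higher meaning stronger. The 8-mer values were recovered from published 9-mer scores, each of which was the minimum of its two constituent 8-mer scores. A cutoff of 0.31 marks candidate sites.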

PBM E-score, ≥ 0.136:
ATGAACTA

PBM E-score, ≥ -0.00473:
AGGTGCTA

PBM E-score, ≥ 0.105:
AAAAGGAT

PBM E-score, ≥ 0.0335:
TACCCAGA

PBM E-score, ≥ 0.1:
ATCTTAAT

PBM E-score, ≥ -0.0163:
GACCGGTC

PBM E-score, ≥ 0.222:
TACTGATA

PBM E-score, ≥ 0.132:
ATCTACCA

PBM E-score, ≥ 0.117:
ACGTTAAT

PBM E-score, ≥ 0.157:
GAGTGATC

PBM E-score, ≥ 0.23:
AGGACACG

PBM E-score, ≥ -0.13:
ACCCCAGC

PBM E-score, ≥ 0.177:
AGCAACTA

PBM E-score, ≥ 0.0319:
CGAACGCA

PBM E-score, ≥ 0.0284:
AACTCCAA

PBM E-score, active:
ATAGTACA 0.343
TTACACAA 0.311
ACTTACAT 0.339
GTATGTAA 0.369
GGCTTGTA 0.312

PBM E-score, ≥ 0.146:
TATTTTAA

PBM E-score, ≥ -0.151:
GGGCGGGA

PBM E-score, inactive:
ATTTCCCC -0.0493
ACTCGGGC -0.0627
ATGCCTAA -0.00683
GAGTGACA 0.272
GAGGACTA -0.0051
ACCGCCTG -0.124
CACGAACG 0.0257
CGCTGGAG -0.246
CTAACGTC -0.0189
GACTGCGA -0.0515
AACCTCCA -0.193
GATGGTGA -0.0851
CCCACCAC -0.154
GCGGGAAC -0.228
CCGGGCTC -0.27
ACGCCAAG -0.154
AATAAGCA 0.117
GAACGAGC 0.153
AGGGTCGC -0.202
AATTATCA 0.198
CGATTCAC 0.081
AAGAAGCG -0.186
AGTCTTGA -0.00056
AACTGGAC 0.0468
ACTGGGGA -0.176
ATACGCAA 0.0746
GCTCTCCA -0.0967
CTGACCGA -0.14
AACTTTCA -0.00477
AAAGGCCT -0.141
GCAGCGTA -0.0388
AAAGAACC -0.064
GCGCGTAA -0.0325
ATTTAGAC 0.058
AGATGTAG 0.244
CTTTTTGC -0.135
AGTCACAC 0.0486
AGGGATAG -0.0587
AGATCGGC -0.152
CTAGTTCA 0.12
CAAGCTGG -0.105
AAACCGGG -0.124
CCAACGCC -0.126
ATTGCAAC 0.0647
TCATTCGA 0.0978
TAGATAGA 0.0936
AACCCCCG -0.284
CTGGAAGA -0.104
ATTTTTCC 0.0668
AACTGCGA -0.123
AACCCCAG -0.152
AGAAAGAA -0.048
GCTGCTGA -0.0472
AGGTGCGA -0.102
AACGCAAT 0.0579
AAGCATCA 0.0394
ACCACTTC 0.0148
ACTTGCGC 0.0111
CCATTCTC -0.115
AGGGAAGG -0.102
TAAATCTA 0.0766
AGCTGCGC -0.161
CGGTGTAG 0.146
CAAAATCA 0.142
GCTCCCGA -0.164
CGAGGTCA -0.0898
AAGAGTAC 0.0434
CCGCGCCC -0.312
GGCCCGGA -0.266
AATAGAGC 0.0205
GTCTTGGA 0.0411
CGTATGGC 0.0196
TCTCAAGA -0.0313
ATATGAAT 0.107
CCCGTTAG -0.204
AGGCCGGC -0.263
CCCATCAG -0.114
CGGCATAG -0.0455
ATTACGAA 0.115
CCCGACAG -0.0633
ACGCAAAC 0.0167
CGCGTTAG -0.0785
ACCTATGC -0.00694
ACGTCTTC -0.0311
CCCAGCCA -0.16
CCTCGGTA -0.132
ATGTCTAG 0.269
ATACGTGA 0.14
GATGGTGC -0.204
CATCATCG 0.029
CCACCTAG -0.0961
ACCAACTA 0.102
TCCGGAGA -0.0875
AAGACCGC -0.0645
ATTTACGA 0.143
ATCTGACC 0.0104
AGCGTGAA 0.0332
AGGTCCTC -0.157
GCTGGGCA -0.162
TAGGCAGA -0.0183
ACATGGGC 0.247
CGCTGTAC 0.126
CGCCGTCA -0.117
TCCGCTAA -0.103
ACCCTTCT -0.0981
ATGACTTA 0.0163
AACGTAGC 0.103
GCTGCTCC -0.151
GAGCGCGA -0.0675
CACGGAAG -0.0147
CGCGCGCG -0.227
ATACTCGA 0.048
CTGTAGAC 0.0856
CTGGATTA 0.0647
TCGCTGCA -0.101
CTGTAGCA 0.126
AATCCATC 0.0793
GCTTAGAA 0.0175
GGTAGGGA -0.0771
AAGGCCGG -0.243
TCGTTACA 0.292
CCTTAGTC -0.0768
GAGGCGAC -0.182
CTGGTTAC 0.149
GGCTCGGA -0.198
ATTTGGGG -0.0657
CAAGCGAA 0.0164
CAAAGTTA 0.108
CGCAACAA 0.258
GCTTCTAA -0.0352
CCCATATC 0.00193
ATTTCCAG 0.0334
CCCTTAAA -0.0545
AACCGGCA -0.0519
CCATGCAG -0.0673
ATCGCGGC -0.165
CACTCAAG 0.0399
AGGGCAAC -0.0847
ACATTTCT 0.17
GCGCCTCA -0.22
ATTGCTTC 0.0988
AAAATAAG 0.027
CCTCCATC -0.178
CAGGTTGA 0.0252
CACATAGG 0.0608
AAAACAAC 0.214
CCGTCCAA -0.0826
ACCAACAC 0.175
CGAGTACA 0.205
AGGATCGC -0.00783
GCAGGCAC -0.173
ACGACCGT -0.0851
ACAGGGGT 0.0957
AGCAGCAA 0.0254
AGCGTTTG -0.163
CGGAGTGC -0.159
ACTCTTTG 0.0309
TCGGGCCA -0.247
AACTCACA 0.0792
CCAACCAC 0.0693
CTAAGAAA 0.0699
AGCTGCAC -0.0853
GACTCCAC -0.126
ACTACCCT 0.0145
ACCCTTAA -0.0465
CCTCTGTC -0.0145
CACGTAAA 0.0877
GACGTCAC 0.0133
ACCATAAC 0.0778
AGAAACAC 0.188
CCCGCTAC -0.0664
AGGACCAA -0.108
CATAAAAG 0.137
CCACCTAC -0.0168
CAACAAGA 0.241
AGGAGTAG -0.0444
ACATCGAA 0.233
AGATAGGA -0.0128
CGTTTCTC -0.0945
GCTGTCCC -0.0796
CGCCCCAA -0.164
GAGTTCCA -0.0386
AGCGTGCC -0.158
CTCAGTAC 0.0603
ACTGGCTA -0.0492
CACAATTA 0.104
ACACGGAC 0.258
GACCTTCC -0.168
AGGCTCCA -0.142
CATATTAG 0.149
CCCGTAAA -0.0711
ACATGGGA 0.276
GAAGGGGA -0.239
ATTACTAG 0.175
GCGGCCAA -0.188
ATTCCTGG -0.0689
CACCGAAC 0.0165
CCCCGTTC -0.171
AACCGTAC 0.0384
CGTAGTTA 0.157
ATCGGGAA -0.0208
CACGCGTG -0.00038
CCGATCAG -0.0191
AGCGCACA -0.0389
GTAATCAC 0.205

Source: the supplement of paper PMC3724861
